Experimental data: the supplement of paper PMC4166925
± gives the standard deviation of the averaged measurements. Over roughly 33,000 sequences, “E-score (dimensionless, -0.5 to 0.5)” has its median near -0.049; the highest 2% begin near 0.37. Some of the results follow.

What follows are sequences tested on T1, PmTbr T-box DNA-binding domain (GST fusion) (assay: PBM E-score of 8-mer (E-score (dimensionless, -0.5 to 0.5)); Tbr is Tbrain of the sea star Patiria miniata (Pm) or the sea urchin Strongylocentrotus purpuratus (Sp); higher = stronger binding preference; most listed sequences are background and not binding sites). Conditions: the construct has about 5 more residues each side.
T1 sequence: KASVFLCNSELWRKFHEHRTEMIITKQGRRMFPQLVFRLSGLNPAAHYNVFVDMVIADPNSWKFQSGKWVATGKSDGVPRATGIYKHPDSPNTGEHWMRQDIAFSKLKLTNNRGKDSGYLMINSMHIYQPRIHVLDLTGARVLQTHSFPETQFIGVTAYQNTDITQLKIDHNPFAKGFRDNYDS
In short: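 Primer extension turned Universal Agilent oligonucleotide arrays double-stranded. They were incubated with 200 nM protein in PBS (pH 7.5); the protein was a GST-fused Tbr T-box DNA-binding domain expressed in BL21 E. coli at 20 °C and purified on glutathione. Every ungapped 8-mer was scored from the scanned, quantified probe intensities, and the Universal PBM Analysis Suite gave each an enrichment E-score averaged over duplicate arrays.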

Sequence | PBM E-score of 8-mer
CTGTGTGC | -0.0563 ± 0.038
CGCTACGA | -0.0671 ± 0.062
CGTGCCCC | -0.288 ± 0.068
TAACAGTA | 0.0841 ± 0.033
ACGTTACT | -0.188 ± 0.033
CATTGTCG | 0.0181 ± 0.025
AACACAAA | 0.0781 ± 0.067
TCAAAGCA | -0.062 ± 0.0063
ACAGTCAA | 0.0473 ± 0.017
GCGAGCTA | 0.2056 ± 0.00028
AGAGTAAA | -0.0713 ± 0.046
GGACGCAA | -0.0512 ± 0.01
ATAGTAAC | -0.0833 ± 0.0067
ATGCGTCC | -0.188 ± 0.0056
CAGGCTAG | -0.0374 ± 0.092
ACGCACGA | -0.0602 ± 0.019
ATAGTTCG | -0.00624 ± 0.14
CTGTGAAA | 0.384 ± 0.0085
AAATTCCT | -0.0902 ± 0.013
CGTGTCAG | 0.31284 ± 0.00018
CCTCCAGC | -0.0157 ± 0.038
ATATACAT | -0.111 ± 0.0041

Sequence | PBM E-score of 8-mer
GAAACTAC | -0.157 ± 0.055
CATTGTAG | -0.0454 ± 0.041
CTTGTTCC | -0.103 ± 0.042
AGGTATTG | -0.0774 ± 0.054
ACGACCTC | 0.0077 ± 0.061
GAACACTA | 0.051 ± 0.077
ATTGTTTA | 0.0887 ± 0.046
GCACAGAA | -0.179 ± 0.025
CCGGAGTA | -0.0523 ± 0.062
CATACCAA | -0.0572 ± 0.018
CTGCGTTC | -0.259 ± 0.045
AGACGATC | -0.107 ± 0.025
ACTGGGAC | -0.316 ± 0.0079
AACAACGT | 0.0269 ± 0.019
GCACAGCA | 0.0287 ± 0.064
CCCGCGGG | 0.0199 ± 0.016
ATCGTCTG | -0.0783 ± 0.026
GGACCGTA | -0.293 ± 0.028
ACGTGCCA | 0.367 ± 0.031
GGCGGCCA | -0.2 ± 0.024
TATACTAA | -0.17 ± 0.047
ATATTCGG | -0.15 ± 0.065

Sequence | PBM E-score of 8-mer
ATTTACGC | 0.0788 ± 0.038
GCTTGCTA | 0.0086 ± 0.1
AGTTGAGA | 0.182 ± 0.028
AAGTTTCA | -0.124 ± 0.084
CGCACACA | 0.121 ± 0.087
GGCGCCAA | 0.362 ± 0.0038
CGTCAGTC | -0.00995 ± 0.022
ACCGAGTC | -0.0836 ± 0.1
ACCGACAG | 0.0973 ± 0.063
ACTATATA | -0.0219 ± 0.14
CCCGACCC | -0.239 ± 0.05
CTGATAAA | -0.0061 ± 0.12
GATAGCCA | -0.257 ± 0.028
AGGCCCAG | -0.251 ± 0.062
CATGCTAC | 0.0237 ± 0.00067
CCGTGCTC | -0.302 ± 0.016
CCTCGTCC | -0.151 ± 0.043
GGTATGAC | -0.0587 ± 0.0068
ATATGTTC | -0.0191 ± 0.015
CCTCTGAA | -0.24 ± 0.019
ATAATCAC | 0.149 ± 0.047
TTACAAAA | -0.272 ± 0.052

Sequence | PBM E-score of 8-mer
GGCCCAGA | -0.255 ± 0.075
AAGCCGAT | -0.175 ± 0.032
CCCCGGGA | 0.0135 ± 0.032
AGAAGATC | -0.0909 ± 0.029
CCTGCGGC | -0.15 ± 0.04
AAACCACC | -0.11 ± 0.019
ACTACCCA | -0.0473 ± 0.032
AGCAACAT | -0.000465 ± 0.079
CCGAGCTC | -0.305 ± 0.026
CCAGTGCA | -0.177 ± 0.014
AGGTCATA | -0.109 ± 0.053
ACATAAAT | 0.0319 ± 0.031
GGACTAAC | -0.132 ± 0.015
CAGTCGAG | -0.139 ± 0.078
AAAGAATG | -0.116 ± 0.09
GACCTGGA | -0.138 ± 0.025
AACCTCCT | -0.0405 ± 0.019
AGCCTAAC | 0.000845 ± 0.017
GCCCCACC | 0.0195 ± 0.016
AGTGGCCC | -0.174 ± 0.04
